# In the supplement of paper PMC11417369:
# Some of the results follow.
# System: PfSIP2 AP2 domain 1 (GST-tagged)
# Test: gcPBM binding intensity (ln(normalized median fluorescence intensity)); higher = stronger DNA binding
# Summary of the method: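 GST-fused DNA-binding domains of P. falciparum, expressed in E. coli, were applied at about 25 μg on average for 1 h to an Agilent 4 × 180k array of primer-extended double-stranded 36-bp intergenic genomic probes and negative controls. Binding intensity is the highest Masliner-normalised natural-log median intensity across replicate spots of either probe orientation, measured with Alexa488 anti-GST antibody and a 488 nm scan.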
row,Sequence,gcPBM binding intensity (ln)
1,ATTATATAAACCAAATGTACAAAAAGGTCGTAGTGG [XGTACX_site1298],7.19
2,ATTATTAAGGTTTATTCAAAAAAGACGTTTTTAAAT [CACACA_negctrl_site1059],6.75
3,AGACACGTATACGATGCACACGTATGCTTTATATAT [CACACA_site9363],7.73
4,TATAATGATGATGATAGTACGTATGAGTAAGAAAAA [XGTACX_site31],7.37
5,ATAAAAATATTTATTACACACATAAGCAAAAAAAAA [CACACA_site3484],6.93
6,TATTTTTATTTTTAAACCATATATATATATATATAT [CACACA_negctrl_site1560],9.44
7,TATAGTTTCATTCTTTGTACATATATATTATTATTA [XGTACX_site8527],7.17
8,AATGTGCAAACAAACTGTACTTTTTTTTTTTTTTTT [XGTACX_site928],7.84
9,AGATTTATTCATTCATGTACTTATTTATTTTATTTT [XGTACX_site6702],7.02
10,AATAATAATGCTTTAACTTTGTTGTTATTTAGAATA [CACACA_negctrl_site1144],6.6
11,TATAAATAAAAGTGTACACACATTAAAATCAAACGT [CACACA_site5316],7.19
12,CATACATATATACATACACACACATATAACCAATGT [CACACA_site8679],7.28
13,TTTGTATTACGTTTGTGTACATATACAATGTGTTTT [XGTACX_site7708],7.03
14,TCCATGCATTGACACACACACAAAAAAAAATTCTTT [CACACA_site7847],7.15
15,TTTATTTATTTATGGACACACATACAAATCTTCCAG [CACACA_site4676],7.03
16,AAACGTGTGTATAATAGTACATAATTATAACGTAAT [XGTACX_site421],6.99
17,CGTATTTTTGGACATGCATGTACAAATAATCTTATG [TGCATGCA_site973],7.32
18,AAATTTGGCAAACACACACACACACCCACAGAGACA [CACACA_site4490],7.28
19,ATATATGGAGCTTATACACACTTTTATATTTTAACA [CACACA_site7757],6.99
20,TTGGGCATAATGTCATGTACACAAATAATTCTTTAT [XGTACX_site861],7
21,TAAGTTTTGTTCTTTTGTACATATAAGTATAGATCG [XGTACX_site4735],6.9
22,AATGTTTTTGTGAGATGTATAAATTTTATTTTATTT [XGTACX_negctrl_site413],6.97
23,AAAAAAATAATGTACACACACATATAGGTTTATATA [CACACA_site192],6.96

row,Sequence,gcPBM binding intensity (ln)
1,TTATAATAAATATTCATATGTTCAAATATATATATA [CACACA_negctrl_site624],8.87
2,TTTATTTATTATTATGTACACACTATATTAAAACAT [CACACA_site700],7.23
3,TATAGATTTATATACACATGCATTTTGGTAAAGAAA [TGCATGCA_site953],7.09
4,AAATATATTTCTTTTTTTCTTATTATTAATTTGCTT [CACACA_negctrl_site1483],6.75
5,ATTGTAAGTAGACACACACACATATAGATGTATATA [CACACA_site6463],7.16
6,TATTTTTTTAATAACTGTACTTTTTTGTCAAATGGA [XGTACX_site4179],7.14
7,TTAAAATTATAATACGTACACACCTTATCTTTTTGG [CACACA_site278],7.28
8,GGCGTATGTGTATATACACACCCACGTATATATATA [CACACA_site9046],8.1
9,TGTTGTTTTATGTTGTATTGTAATATATTATATTAT [XGTACX_negctrl_site46],7.48
10,ATATATAACGGGCACACACACATTTACGTATGAATA [CACACA_site1833],7.39
11,TTAGGATTGAAGAGTTGTACATACCTCTTATTTGTT [XGTACX_site1376],6.89
12,ATCATATATTATTTATGTACTTATTTATAATAATAT [XGTACX_site8257],7.06
13,TATAAAATGTAATCTGAACACACATATTTTTTTAAT [CACACA_site8521],6.72
14,GGAAAATATGTTTGTGTGCACAGCTAGCTATTTGTA [GTGCAC_site9637],8.41
15,CACCCACACCAACACACACACATATATATATATATA [CACACA_site362],9.74
16,AAATAAATTGATTCAACACACACATATGTAGGAAGT [CACACA_site9068],7.09
17,TTTTTTTTTTTCAAGCGTACAAAAAATATATTTAAA [XGTACX_site5327],7.11
18,AATTTTTTTTGTCTCTGTACTTATAAAATATATATG [XGTACX_site4742],6.96
19,AAAAAAAATTTTAATTGTACAAAAAAAAAAAATATA [XGTACX_site2259],6.82
20,TATATATGGGTAACCTTTTTTTTTTTTTTTCGAACA [CACACA_negctrl_site1303],6.8
21,AAATAACAAATTTTTAAAATGTATATATATATATAT [TGCATGCA_negctrl_site219],9.11
22,ATTCATAATTTATTATGTACATATATATAATATATT [XGTACX_site1711],6.93
23,TAAAACCTTTAAAATACATGCAGCATATATAAGTAA [TGCATGCA_site181],6.69

row,Sequence,gcPBM binding intensity (ln)
1,AAGGATATAACATACACACACACACCCATATATATA [CACACA_site4142],7.85
2,TGCAATTTAATATGAGTGCATATATTGAGAAAATAC,8.9
3,AAAGAAATTATTTGTTGTACATATGTTATTTTTTTT [XGTACX_site7570],6.93
4,AATAAATTGGTATGTTGTACAAAGTAACCATCGATT [XGTACX_site2823],6.93
5,ATATCATGTTAAGATTGTACATATATATAATATATA [XGTACX_site7626],7.31
6,TTAAAATATGAATAATGTACAAGAAATTTTATTAAT [XGTACX_site6314],6.93
7,ATTATTACATTTTTATGTACATATCAAATTTATACA [XGTACX_site7332],7.09
8,TTAACTTAAGGAGAGTGTACAAATAATAAAATATCT [XGTACX_site4118],7.17
9,ATATTTTTTACAAATTGTACATTTTTACAATTATTA [XGTACX_site7496],6.99
10,TAACCTAAAATAACTACACACACATAAAAAAAAAAA [CACACA_site8807],6.89
11,TATAAATTAAAATGTGTGCACTAAATTGAAATAGAA,10.7
12,ATATATATATATAATAGTACATATATTTTTATTGGT [XGTACX_site711],9.08
13,TCACTTAATATTTAATGTACATAAGGTTCTTGTGCC [XGTACX_site1822],7.13
14,TTATATAACATTATTTGTACATATAAAATATGGATG [XGTACX_site8526],7.17
15,AAAAAAAATTTATGGGGTACATATTATAATATTATA [XGTACX_site3395],7.38
16,GTTTTCATCCAAAAAAGTACATTTATTTTTATACGA [XGTACX_site1039],7.27
17,GTAGTGGTTGAATATACACACATATATAAATAAATA [CACACA_site7282],7
18,ATGTATGAATTACATAGTACATAAGAAAAAATGAAG [XGTACX_site5942],7.45
19,GGAAAATCTTTATAATGTACATTATGATTATATAAT [XGTACX_site6256],7.01
20,AAATATAAAGTGCACACACACAAAAAAAGAAAAAAA [CACACA_site6452],11.2
21,TTATTTTTTTTAAATTGTACAAGGAACAGTGAAAAA [XGTACX_site4380],7.83
22,TTTGTGTGTACGCGTGTGCACATTTTTTTTTTTTTT,9.36
23,TAAATGTCTTCAATGAAGTGGAAATGCTGTTATATA [CACACA_negctrl_site1155],6.96

row,Sequence,gcPBM binding intensity (ln)
1,TATATAACCTATAGCACACATATATAATATATATTA [CACACA_site1834],6.98
2,AAATGTAATATAAATAGTACATATTAAATAAAATTA [XGTACX_site6917],6.86
3,ATGTGCACATATAAAAGTACACGCACATATATATAT [XGTACX_site1238],9.66
4,TGCACAAAGTTATGCACACACCTAAAATTAATTTTT [CACACA_site7385],8.69
5,TATACACATATATACACACACATATATAAATAAATA [CACACA_site7579],7.26
6,TTATAATATGTATACACACACATATATAGATATATA [CACACA_site7159],7.1
7,ATTCTTTATATGCATACACACCTAATATAGGGACCT [CACACA_site6830],7.49
8,GTACATAGGTATAGCACACACAAATGTAGGTATTTT [CACACA_site4049],6.77
9,AAAAAAAAAAAAAAAACACACATAAAAATATAATAA [CACACA_site3855],7.48
10,ATTATATATAATATAGTGCATGTAAAAAATAAAACA,10
11,AAGAATATTATAAACACACACTTTATAAAGAATTAT [CACACA_site4241],6.87
12,TATATAATTGTCTTCACACACACATATATATATATA [CACACA_site2744],9.25
13,TATTTTATTTGTATATTCATTTGTATAATATAAATA [TGCATGCA_negctrl_site267],6.79
14,AAGGAAAAGTAAAGAAGTACTGTACCGCCAAAAAAA [XGTACX_site2607],6.98
15,AATTTATTTTTTTGATGTACATACAATTTATCACAA [XGTACX_site5936],7.3
16,TTGATGTTGGTAGGATGTACGGTACCGGTAGTATTT [XGTACX_site6642],6.98
17,AAAATAATAAAAAGGGGTACAAAGAAACAAATATAA [XGTACX_site296],7.09
18,TATGTGCATATAAACTCACACATTGTATATTACATG [CACACA_site6106],9.08
19,TTTATTAAAATATTCTCACACACCAAAATATGTATG [CACACA_site932],6.78
20,ATAAAATAACACAACGTTGACAAATTTGGATGACTC [XGTACX_negctrl_site324],7.08
